Source: US20250163166A1 (REGENECORE BIOTECH, published 2025)

How the values were obtained:
human FCγRIIIa receptor [1] = molecular target: T1, human FCγRIIIa receptor (human, UniProt P08637 in part, limits assumed); assay: BLI (Octet 96), antibody loaded on sensor, FCγRIIIa 200 nM and 2-fold dilutions in solution
T1 construct: Used in solution as the 'antigen' in BLI; also called FcγIIIa receptor
Experimental: (§1) (3) Preparation of antigen working solution: 200 nM antigen (FCγRIIIa) in SD buffer was first prepared at and then serially diluted in 2 folds to prepare a total of 5 concentration gradients, in addition to which a zero concentration was prepared.
(§2) (11) Data analysis: related constants, such as KD, Kon, Koff, X2, Full R2 and the like were calculated in Data Analysis software.
(§3) In the examples of the present application, the modified bispecific antibody was subjected to BLI test to determine the affinity of the modified bispecific antibody to human FCγRIIIa.

human FCγRIIIa receptor [2] = molecular target: T1, human FCγRIIIa receptor; assay: BLI; Ratio against the hIgG (hIgG1) control, fits KD(hIgG)/KD(sample)
T1 sequence (P08637 17-208 limits assumed): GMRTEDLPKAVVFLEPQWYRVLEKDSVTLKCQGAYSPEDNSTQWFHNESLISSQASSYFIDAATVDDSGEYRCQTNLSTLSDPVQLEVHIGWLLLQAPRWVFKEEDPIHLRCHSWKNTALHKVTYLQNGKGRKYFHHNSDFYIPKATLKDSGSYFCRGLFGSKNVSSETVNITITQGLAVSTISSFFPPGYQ
Experimental: as §1, §2, §3

Row | Binder | Kd (human FCγRIIIa receptor [1]) | Ratio (human FCγRIIIa receptor [2])
1 | bispecific antibody BM#33 against CD33 and CD123 (bispecific antibody, human IgG1, VHH-Fc heterodimer) chain 1: QVQLVESGGGSVQAGGSLRLSCAASGYTYSSTCIGWFRQAPGKDREGVAFAYTGGGVTYADSVKGRFTISQDNAKNTVHLIMNSLKPEDTAMYYCAAKTRGGCWAAAAFYNYWGQGTQVTVSS[human IgG1 Fc with T366D (EU numbers) left out here] chain 2: QVQLVESGGGSVQAGGSLKLSCAASRFIFSRCGMGWFRQAPGKERELVSTISGDGTTFYADSVKGRFTISQHNAATTLYLQMNSLKLEDTAVYYCAADCYNRKYWGQGTQVTVSS[human IgG1 Fc with Y407K (EU numbers) left out here] | 70.6 nM | 1.26
2 | bispecific antibody BM#8 against CD33 and CD123 (bispecific antibody, human IgG1, VHH-Fc heterodimer; also called BM-RT2831-#8) chain 1: QVQLVESGGGSVQAGGSLRLSCAASGYTYSSTCIGWFRQAPGKDREGVAFAYTGGGVTYADSVKGRFTISQDNAKNTVHLIMNSLKPEDTAMYYCAAKTRGGCWAAAAFYNYWGQGTQVTVSS[human IgG1 Fc with D356K T366V (EU numbers) left out here] chain 2: QVQLVESGGGSVQAGGSLKLSCAASRFIFSRCGMGWFRQAPGKERELVSTISGDGTTFYADSVKGRFTISQHNAATTLYLQMNSLKLEDTAVYYCAADCYNRKYWGQGTQVTVSS[human IgG1 Fc with Y407A K439E (EU numbers) left out here] | 63.4 nM | 1.4
3 | bispecific antibody BM#20 against CD33 and CD123 (bispecific antibody, human IgG1, VHH-Fc heterodimer; also called BM-RT2831-#20) chain 1: QVQLVESGGGSVQAGGSLRLSCAASGYTYSSTCIGWFRQAPGKDREGVAFAYTGGGVTYADSVKGRFTISQDNAKNTVHLIMNSLKPEDTAMYYCAAKTRGGCWAAAAFYNYWGQGTQVTVSS[human IgG1 Fc with K360D T366V (EU numbers) left out here] chain 2: QVQLVESGGGSVQAGGSLKLSCAASRFIFSRCGMGWFRQAPGKERELVSTISGDGTTFYADSVKGRFTISQHNAATTLYLQMNSLKLEDTAVYYCAADCYNRKYWGQGTQVTVSS[human IgG1 Fc with Q347R Y407A (EU numbers) left out here] | 63.9 nM | 1.39
4 | bispecific antibody BM#10 against CD33 and CD123 (bispecific antibody, human IgG1, VHH-Fc heterodimer; also called BM-RT2831-#10) chain 1: QVQLVESGGGSVQAGGSLRLSCAASGYTYSSTCIGWFRQAPGKDREGVAFAYTGGGVTYADSVKGRFTISQDNAKNTVHLIMNSLKPEDTAMYYCAAKTRGGCWAAAAFYNYWGQGTQVTVSS[human IgG1 Fc with Q347R T366V (EU numbers) left out here] chain 2: QVQLVESGGGSVQAGGSLKLSCAASRFIFSRCGMGWFRQAPGKERELVSTISGDGTTFYADSVKGRFTISQHNAATTLYLQMNSLKLEDTAVYYCAADCYNRKYWGQGTQVTVSS[human IgG1 Fc with K360D Y407A (EU numbers) left out here] | 70.9 nM | 1.25
5 | bispecific antibody BM#7 against CD33 and CD123 (bispecific antibody, human IgG1, VHH-Fc heterodimer; also called BM-RT2831-#7) chain 1: QVQLVESGGGSVQAGGSLRLSCAASGYTYSSTCIGWFRQAPGKDREGVAFAYTGGGVTYADSVKGRFTISQDNAKNTVHLIMNSLKPEDTAMYYCAAKTRGGCWAAAAFYNYWGQGTQVTVSS[human IgG1 Fc with Q347R T366W (EU numbers) left out here] chain 2: QVQLVESGGGSVQAGGSLKLSCAASRFIFSRCGMGWFRQAPGKERELVSTISGDGTTFYADSVKGRFTISQHNAATTLYLQMNSLKLEDTAVYYCAADCYNRKYWGQGTQVTVSS[human IgG1 Fc with K360D T366S L368A Y407V (EU numbers) left out here] | 61 nM | 1.45
6 | bispecific antibody BM#15 against CD33 and CD123 (bispecific antibody, human IgG1, VHH-Fc heterodimer; also called BM-RT2831-#15) chain 1: QVQLVESGGGSVQAGGSLRLSCAASGYTYSSTCIGWFRQAPGKDREGVAFAYTGGGVTYADSVKGRFTISQDNAKNTVHLIMNSLKPEDTAMYYCAAKTRGGCWAAAAFYNYWGQGTQVTVSS[human IgG1 Fc with T366W K439E (EU numbers) left out here] chain 2: QVQLVESGGGSVQAGGSLKLSCAASRFIFSRCGMGWFRQAPGKERELVSTISGDGTTFYADSVKGRFTISQHNAATTLYLQMNSLKLEDTAVYYCAADCYNRKYWGQGTQVTVSS[human IgG1 Fc with D356K T366S L368A Y407V (EU numbers) left out here] | 68.2 nM | 1.3

Further lines, results first:

Row | Kd (human FCγRIIIa receptor [1]) | Ratio (human FCγRIIIa receptor [2]) | Binder
7 | 46.2 nM | 1.92 | bispecific antibody BM#11 against CD33 and CD123 (bispecific antibody, human IgG1, VHH-Fc heterodimer) chain 1: QVQLVESGGGSVQAGGSLRLSCAASGYTYSSTCIGWFRQAPGKDREGVAFAYTGGGVTYADSVKGRFTISQDNAKNTVHLIMNSLKPEDTAMYYCAAKTRGGCWAAAAFYNYWGQGTQVTVSS[human IgG1 Fc with T366W K409W (EU numbers) left out here] chain 2: QVQLVESGGGSVQAGGSLKLSCAASRFIFSRCGMGWFRQAPGKERELVSTISGDGTTFYADSVKGRFTISQHNAATTLYLQMNSLKLEDTAVYYCAADCYNRKYWGQGTQVTVSS[human IgG1 Fc with T366S L368A D399V F405T Y407V (EU numbers) left out here]
8 | 73 nM | 1.21 | bispecific antibody BM#9 against CD33 and CD123 (bispecific antibody, human IgG1, VHH-Fc heterodimer; also called BM-RT2831-#9) chain 1: QVQLVESGGGSVQAGGSLRLSCAASGYTYSSTCIGWFRQAPGKDREGVAFAYTGGGVTYADSVKGRFTISQDNAKNTVHLIMNSLKPEDTAMYYCAAKTRGGCWAAAAFYNYWGQGTQVTVSS[human IgG1 Fc with E357D T366V (EU numbers) left out here] chain 2: QVQLVESGGGSVQAGGSLKLSCAASRFIFSRCGMGWFRQAPGKERELVSTISGDGTTFYADSVKGRFTISQHNAATTLYLQMNSLKLEDTAVYYCAADCYNRKYWGQGTQVTVSS[human IgG1 Fc with K370Y Y407A (EU numbers) left out here]
9 | 76.5 nM | 1.16 | bispecific antibody BM#5 against CD33 and CD123 (bispecific antibody, human IgG1, VHH-Fc heterodimer; also called BM-RT2831-#5) chain 1: QVQLVESGGGSVQAGGSLRLSCAASGYTYSSTCIGWFRQAPGKDREGVAFAYTGGGVTYADSVKGRFTISQDNAKNTVHLIMNSLKPEDTAMYYCAAKTRGGCWAAAAFYNYWGQGTQVTVSS[human IgG1 Fc with D356K T366W (EU numbers) left out here] chain 2: QVQLVESGGGSVQAGGSLKLSCAASRFIFSRCGMGWFRQAPGKERELVSTISGDGTTFYADSVKGRFTISQHNAATTLYLQMNSLKLEDTAVYYCAADCYNRKYWGQGTQVTVSS[human IgG1 Fc with T366S L368A Y407V K439E (EU numbers) left out here]
10 | 59.4 nM | 1.49 | bispecific antibody BM#16 against CD33 and CD123 (bispecific antibody, human IgG1, VHH-Fc heterodimer) chain 1: QVQLVESGGGSVQAGGSLRLSCAASGYTYSSTCIGWFRQAPGKDREGVAFAYTGGGVTYADSVKGRFTISQDNAKNTVHLIMNSLKPEDTAMYYCAAKTRGGCWAAAAFYNYWGQGTQVTVSS[human IgG1 Fc with T366W K370Y (EU numbers) left out here] chain 2: QVQLVESGGGSVQAGGSLKLSCAASRFIFSRCGMGWFRQAPGKERELVSTISGDGTTFYADSVKGRFTISQHNAATTLYLQMNSLKLEDTAVYYCAADCYNRKYWGQGTQVTVSS[human IgG1 Fc with E357D T366S L368A Y407V (EU numbers) left out here]
11 | 62.6 nM | 1.42 | bispecific antibody BM#17 against CD33 and CD123 (bispecific antibody, human IgG1, VHH-Fc heterodimer; also called BM-RT2831-#17) chain 1: QVQLVESGGGSVQAGGSLRLSCAASGYTYSSTCIGWFRQAPGKDREGVAFAYTGGGVTYADSVKGRFTISQDNAKNTVHLIMNSLKPEDTAMYYCAAKTRGGCWAAAAFYNYWGQGTQVTVSS[human IgG1 Fc with K360D T366W (EU numbers) left out here] chain 2: QVQLVESGGGSVQAGGSLKLSCAASRFIFSRCGMGWFRQAPGKERELVSTISGDGTTFYADSVKGRFTISQHNAATTLYLQMNSLKLEDTAVYYCAADCYNRKYWGQGTQVTVSS[human IgG1 Fc with Q347R T366S L368A Y407V (EU numbers) left out here]
12 | 80.8 nM | 1.1 | bispecific antibody BM#19 against CD33 and CD123 (bispecific antibody, human IgG1, VHH-Fc heterodimer; also called BM-RT2831-#19) chain 1: QVQLVESGGGSVQAGGSLRLSCAASGYTYSSTCIGWFRQAPGKDREGVAFAYTGGGVTYADSVKGRFTISQDNAKNTVHLIMNSLKPEDTAMYYCAAKTRGGCWAAAAFYNYWGQGTQVTVSS[human IgG1 Fc with K370Y Y407A (EU numbers) left out here] chain 2: QVQLVESGGGSVQAGGSLKLSCAASRFIFSRCGMGWFRQAPGKERELVSTISGDGTTFYADSVKGRFTISQHNAATTLYLQMNSLKLEDTAVYYCAADCYNRKYWGQGTQVTVSS[human IgG1 Fc with E357D T366V (EU numbers) left out here]
13 | 69.8 nM | 1.27 | bispecific antibody BM#18 against CD33 and CD123 (bispecific antibody, human IgG1, VHH-Fc heterodimer; also called BM-RT2831-#18) chain 1: QVQLVESGGGSVQAGGSLRLSCAASGYTYSSTCIGWFRQAPGKDREGVAFAYTGGGVTYADSVKGRFTISQDNAKNTVHLIMNSLKPEDTAMYYCAAKTRGGCWAAAAFYNYWGQGTQVTVSS[human IgG1 Fc with T366V K439E (EU numbers) left out here] chain 2: QVQLVESGGGSVQAGGSLKLSCAASRFIFSRCGMGWFRQAPGKERELVSTISGDGTTFYADSVKGRFTISQHNAATTLYLQMNSLKLEDTAVYYCAADCYNRKYWGQGTQVTVSS[human IgG1 Fc with D356K Y407A (EU numbers) left out here]
14 | 91.3 nM | 0.97 | bispecific antibody BM#6 against CD33 and CD123 (bispecific antibody, human IgG1, VHH-Fc heterodimer; also called BM-RT2831-#6) chain 1: QVQLVESGGGSVQAGGSLRLSCAASGYTYSSTCIGWFRQAPGKDREGVAFAYTGGGVTYADSVKGRFTISQDNAKNTVHLIMNSLKPEDTAMYYCAAKTRGGCWAAAAFYNYWGQGTQVTVSS[human IgG1 Fc with E357D T366W (EU numbers) left out here] chain 2: QVQLVESGGGSVQAGGSLKLSCAASRFIFSRCGMGWFRQAPGKERELVSTISGDGTTFYADSVKGRFTISQHNAATTLYLQMNSLKLEDTAVYYCAADCYNRKYWGQGTQVTVSS[human IgG1 Fc with T366S L368A K370Y Y407V (EU numbers) left out here]
